Test results from the supplement of paper PMC3334620.
Whole data set: some 33,000 sequences, median “E-score (-0.5 to 0.5)” near -0.012, cut for the highest 2% near 0.29. The list shows a part of the results.

Target: T1, Ybr033w (UniProt P38073)
T1 sequence: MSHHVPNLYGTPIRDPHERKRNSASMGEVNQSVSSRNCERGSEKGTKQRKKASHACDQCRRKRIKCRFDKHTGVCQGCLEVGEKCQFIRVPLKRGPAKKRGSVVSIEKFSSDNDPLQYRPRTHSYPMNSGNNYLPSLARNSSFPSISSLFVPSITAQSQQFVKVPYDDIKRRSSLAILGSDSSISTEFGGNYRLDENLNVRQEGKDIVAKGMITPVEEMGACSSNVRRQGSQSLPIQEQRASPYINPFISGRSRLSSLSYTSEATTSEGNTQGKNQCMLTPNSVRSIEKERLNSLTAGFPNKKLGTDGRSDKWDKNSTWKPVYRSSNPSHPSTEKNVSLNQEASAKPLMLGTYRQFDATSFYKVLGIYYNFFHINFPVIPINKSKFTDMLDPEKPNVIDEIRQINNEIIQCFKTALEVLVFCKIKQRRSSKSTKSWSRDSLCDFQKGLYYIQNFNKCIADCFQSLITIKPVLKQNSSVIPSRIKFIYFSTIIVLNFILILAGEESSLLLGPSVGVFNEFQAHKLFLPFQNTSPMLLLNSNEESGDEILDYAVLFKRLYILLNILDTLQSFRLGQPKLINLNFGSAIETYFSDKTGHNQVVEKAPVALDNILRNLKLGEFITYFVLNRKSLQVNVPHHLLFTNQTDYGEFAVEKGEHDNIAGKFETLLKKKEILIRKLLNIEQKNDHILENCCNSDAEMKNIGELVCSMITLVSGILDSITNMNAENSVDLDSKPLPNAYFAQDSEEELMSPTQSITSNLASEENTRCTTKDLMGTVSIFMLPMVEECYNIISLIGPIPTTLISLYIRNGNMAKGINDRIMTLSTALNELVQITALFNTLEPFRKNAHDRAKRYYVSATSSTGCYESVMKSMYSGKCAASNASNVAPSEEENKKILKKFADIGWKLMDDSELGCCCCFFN
Assay: PBM E-score (8-mer binding enrichment) (E-score (-0.5 to 0.5)); higher = stronger / more preferred TF binding; most listed sequences are background and not binding sites
Conditions: protein concentration: 200 nM; construct: GST-full length
Summary of the method: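 PURExpress in vitro transcription/translation supplied GST-tagged yeast transcription factors, either full-length or DNA-binding domain. Applied at about 100-200 nM to universal all-10-mer Agilent arrays double-stranded by primer extension, the bound protein was detected with fluorescent anti-GST. E-scores, modified Wilcoxon-Mann-Whitney statistics, were given by the Universal PBM Analysis Suite to ungapped eight-base words pooled with their reverse complements after masliner normalisation.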

Sequence | PBM E-score
GATGGCAC | -0.258
CGCGACCA | -0.113
GGTGGGTA | 0.049
ATCCTTCG | 0.059
CACGATTA | 0.0858
ACCGTAAG | 0.0895
CCGCGGGA | 0.055
ATGGGCTA | 0.205
CCGGAGGA | -0.0855
ACTAACTA | 0.0153
CAAAAGTA | 0.16
AAGTCTCG | -0.205
GGTTTTTA | 0.135
AGTTGGGC | -0.103
GACCGAAA | 0.0561
CTCTCCAA | -0.189
CCGTTGAG | 0.023
ATGGCACA | -0.0621
TCTTTTAA | 0.133
AGGCGGTG | -0.207
CAGCCCTC | -0.203
CCTCTGCA | -0.134
ACTAGCCG | -0.0895
TCATGCCA | 0.0753
CTATGGCA | -0.237

Sequence | PBM E-score
CCTACGAC | -0.0251
CGCTGAGC | -0.0727
TCGTAAAA | 0.132
CCAACCAA | -0.128
ACACGGCC | -0.183
TCTCTGCA | -0.162
AAGTTGTA | 0.186
CGGGGATA | -0.103
CCACATCG | 0.0256
ATAATTTG | 0.35
ACGCCACC | -0.171
CGATTATC | 0.07
AAACAACA | 0.182
TCTGAAGA | 0.00537
GCTCGATA | 0.0813
AGATCTCA | -0.0281
CGGGGTCC | -0.324
GAGAACGA | -0.0798
AAGGGTCG | -0.0576
GGCTGTAA | -0.0501
AGGCATTA | -0.0439
CATCGACG | -0.0899
CGCATCCA | -0.0928
GTAGTGAC | -0.081
GGCCATGA | -0.0003

Sequence | PBM E-score
GTTGTACA | 0.188
GCTTATGA | -0.0277
GCCGTTGA | 0.0853
ATAGCTAC | -0.00419
ACGACGCT | -0.174
GCTCGAGA | -0.133
CCCGTTAA | -0.192
ACAATAAA | 0.14
AACATTGG | 0.043
AGGTGTTA | 0.0646
ACTGTCAC | 0.00911
CAGGGTTA | -0.0583
AGACATCA | -0.0142
CGACGTCC | -0.19
CCCCCGGC | -0.433
GATCCCGA | -0.0648
ATATGGAG | 0.0461
AGGTCCCG | -0.0489
GTAAGGCA | -0.196
GTCCATCA | -0.0703
CACGGCTG | -0.221
GTACCGAA | -0.191
ACCGTACC | -0.158
ACGAATTC | 0.0691
CGCACCAA | 0.0188

Sequence | PBM E-score
GGGATCGA | -0.0518
CTGGGAGA | -0.155
CAGCCCCC | -0.434
AGCTGGGG | -0.0432
GGCTGAGA | -0.171
CGTCCTCA | -0.128
AAAAACAA | 0.321
GACAACTC | 0.00718
CCATGGTC | -0.138
ACCCCCTC | -0.378
ATGCAGAG | -0.102
ATGGCGAA | 0.165
ATAGTTGC | 0.199
CAGGTGGC | -0.162
CGACCTCC | -0.00382
TACAGAAA | 0.169
CGTAGTCA | -0.186
ACCAGCCG | -0.0373
ACTTGAAT | 0.174
GAGGATAC | -0.0653
CCAGTTCA | 0.116
AATCATTA | 0.227
CCTCAGTA | -0.135
CATCGCGA | 0.104
CGGCACCC | -0.207

Sequence | PBM E-score
CCGGTCAA | -0.115
CAAGACTC | -0.1
AGCTCAAA | 0.143
ATAAGGCG | 0.017
CGGTCAAA | 0.0995
GGAGGAAC | -0.147
AGGCTTGA | -0.047
ATCTCAAG | 0.0819
CGACGTGA | -0.0087
AGACACTG | 0.105
ATCAGCGC | -0.0697
GCCTCCGA | -0.125
CCGCTCAA | -0.0575
CTGCATCA | 0.181
CCTACTTC | -0.0544
AAAGGGGT | -0.342
AACAACGG | -0.0283
ATATACAC | 0.262
AGTCAATG | 0.0295
CTAAATAG | 0.187
GATCGGGA | -0.309
CCTGTGTC | -0.273
AGGGGAAG | -0.272
CGTAGTAC | 0.0943
CCATGTAG | -0.0651

Sequence | PBM E-score
AGCTCTCG | -0.152
ATCTGACA | -0.0543
AATGCCCT | -0.153
AAGAAAGA | 0.095
ACGGTCGG | -0.239
TGATCGCA | -0.107
GGTGCCGA | -0.0186
CTAGAAAC | -0.00294
AGATGAGG | -0.264
GAAACCTC | -0.0461
AGGAGTGC | -0.0831
ACAGAAAC | 0.237
CGTATCTA | 0.108
CAGGTAAC | -0.106
CGATATCG | 0.174
CCCTCAAC | -0.204
AGTAACCC | -0.056
TTACGAAA | 0.133
AACTATTG | 0.279
AAGCCATT | 0.0741
CCCAAAGC | -0.0545
AGTGACAA | 0.109
CCTCTCCG | -0.281
TCACGACA | 0.0796
ACGACTCG | -0.0965

Sequence | PBM E-score
AGTAGGCA | 0.26
GAATATAA | 0.131
CTCGGGTC | -0.144
AGGAGGCC | -0.34
CGGTAATA | 0.172
GATACTAC | 0.0161
ATAGCTTC | 0.135
GCCCGGCC | -0.332
ATTCCAAC | 0.103
AGCCGGAA | 0.22
GCCAACCA | -0.147
CGTGCGTA | -0.0281
AGATTAGG | 0.00497
GGCGGATA | 0.0943
AAACATTC | -0.0265
CGCCTTCC | -0.23
CGACGACC | -0.0467
AAGGTTAA | 0.0592
ACGTAGCA | 0.00827
AGCCTTTG | -0.0932
AACGGAAT | 0.235
ACAGCCGA | -0.152
